Measurements taken from the supplement of paper PMC8728848.
The other results are listed elsewhere or left out.

What was measured:
Experiment in all cases: glycan array binding signal (z-score within array); higher = stronger binding
Conditions in all cases: glycan notation: IUPAC condensed, linker removed; mutation: A146Q
[1] = target: Gal(b1-3)GalNAc(a1-3)[Fuc(a1-2)]Gal(b1-4)GlcNAc
Procedure, shortened: (§1)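 The binding signal is a Z-score computed within each array and averaged over linkers. Arrays of the same protein sequence at different concentrations or buffers were also averaged together. Data originate from 3228 arrays in the Consortium for Functional Glycomics database, kept only where the protein sequence was available.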

[2] = target: Gal(b1-3)GalNAc(b1-3)Gal(a1-4)Gal(b1-4)Glc
Procedure, shortened: as §1

[3] = target: Gal(b1-3)GalNAc(b1-4)Gal(b1-4)Glc
Procedure, shortened: as §1

[4] = target: Gal(b1-3)GalNAc(b1-4)[Neu5Ac(a2-3)]Gal(b1-4)Glc
Procedure, shortened: as §1

Gal(b1-3)GlcNAc = target: Gal(b1-3)GlcNAc
Procedure, shortened: as §1

[5] = target: Gal(b1-3)GlcNAc(a1-6)Gal(b1-4)GlcNAc
Procedure, shortened: as §1

[6] = target: Gal(b1-3)GlcNAc(b1-2)Man(a1-3)[Gal(b1-3)GlcNAc(b1-2)Man(a1-6)]Man(b1-4)GlcNAc(b1-4)GlcNAc
Procedure, shortened: as §1

[7] = target: Gal(b1-3)GlcNAc(b1-2)Man(a1-3)[Gal(b1-3)GlcNAc(b1-2)Man(a1-6)]Man(b1-4)GlcNAc(b1-4)[Fuc(a1-6)]GlcNAc
Procedure, shortened: as §1

[8] = target: Gal(b1-3)GlcNAc(b1-3)Gal(b1-3)GlcNAc
Procedure, shortened: as §1

[9] = target: Gal(b1-3)GlcNAc(b1-3)Gal(b1-4)Glc
Procedure, shortened: as §1

[10] = target: Gal(b1-3)GlcNAc(b1-3)Gal(b1-4)GlcNAc
Procedure, shortened: as §1

[11] = target: Gal(b1-3)GlcNAc(b1-3)Gal(b1-4)GlcNAc(b1-6)[Gal(b1-3)GlcNAc(b1-3)]Gal(b1-4)Glc
Procedure, shortened: as §1

[12] = target: Gal(b1-3)GlcNAc(b1-3)Gal(b1-4)[Fuc(a1-3)]GlcNAc(b1-6)[Gal(b1-3)GlcNAc(b1-3)]Gal(b1-4)Glc
Procedure, shortened: as §1

[13] = target: Gal(b1-3)GlcNAc(b1-3)GalNAc
Procedure, shortened: as §1

[14] = target: Gal(b1-3)GlcNAc(b1-6)Gal(b1-4)GlcNAc
Procedure, shortened: as §1

[15] = target: Gal(b1-3)[Fuc(a1-4)]GlcNAc
Procedure, shortened: as §1

[16] = target: Gal(b1-3)[Fuc(a1-4)]GlcNAc(b1-2)Man(a1-3)[Gal(b1-3)[Fuc(a1-4)]GlcNAc(b1-2)Man(a1-6)]Man(b1-4)GlcNAc(b1-4)GlcNAc
Procedure, shortened: as §1

[17] = target: Gal(b1-3)[Fuc(a1-4)]GlcNAc(b1-2)Man(a1-3)[Gal(b1-3)[Fuc(a1-4)]GlcNAc(b1-2)Man(a1-6)]Man(b1-4)GlcNAc(b1-4)[Fuc(a1-6)]GlcNAc
Procedure, shortened: as §1

[18] = target: Gal(b1-3)[Fuc(a1-4)]GlcNAc(b1-3)Gal(b1-3)[Fuc(a1-4)]GlcNAc
Procedure, shortened: as §1

[19] = target: Gal(b1-3)[Fuc(a1-4)]GlcNAc(b1-3)Gal(b1-4)GlcNAc
Procedure, shortened: as §1

[20] = target: Gal(b1-3)[Fuc(a1-4)]GlcNAc(b1-3)Gal(b1-4)[Fuc(a1-3)]GlcNAc
Procedure, shortened: as §1

[21] = target: Gal(b1-3)[GlcNAc(b1-6)]GalNAc
Procedure, shortened: as §1

[22] = target: Gal(b1-3)[Neu5Ac(a2-6)]GalNAc
Procedure, shortened: as §1

[23] = target: Gal(b1-3)[Neu5Ac(a2-6)]GlcNAc(b1-6)Gal(b1-4)Glc
Procedure, shortened: as §1

[24] = target: Gal(b1-3)[Neu5Ac(b2-6)]GalNAc
Procedure, shortened: as §1

[25] = target: Gal(b1-4)GalNAc(a1-3)[Fuc(a1-2)]Gal(b1-4)GlcNAc
Procedure, shortened: as §1

[26] = target: Gal(b1-4)GalNAc(b1-3)[Fuc(a1-2)]Gal(b1-4)GlcNAc
Procedure, shortened: as §1

Gal(b1-4)Glc = target: Gal(b1-4)Glc
Procedure, shortened: as §1

Gal(b1-4)Glc6S = target: Gal(b1-4)Glc6S
Procedure, shortened: as §1

Gal(b1-4)GlcNAc = target: Gal(b1-4)GlcNAc
Procedure, shortened: as §1

[27] = target: Gal(b1-4)GlcNAc(a1-6)Gal(b1-4)GlcNAc
Procedure, shortened: as §1

[28] = target: Gal(b1-4)GlcNAc(b1-2)Man(a1-3)Man(b1-4)GlcNAc(b1-4)GlcNAc
Procedure, shortened: as §1

[29] = target: Gal(b1-4)GlcNAc(b1-2)Man(a1-3)[Gal(b1-4)GlcNAc(b1-2)Man(a1-6)]Man(b1-4)GlcNAc(b1-4)GlcNAc
Procedure, shortened: as §1

[30] = target: Gal(b1-4)GlcNAc(b1-2)Man(a1-3)[Gal(b1-4)GlcNAc(b1-2)Man(a1-6)]Man(b1-4)GlcNAc(b1-4)[Fuc(a1-6)]GlcNAc
Procedure, shortened: as §1

[31] = target: Gal(b1-4)GlcNAc(b1-2)Man(a1-3)[GlcNAc(b1-2)Man(a1-6)]Man(b1-4)GlcNAc(b1-4)GlcNAc
Procedure, shortened: as §1

[32] = target: Gal(b1-4)GlcNAc(b1-2)Man(a1-3)[Man(a1-6)]Man(b1-4)GlcNAc(b1-4)GlcNAc
Procedure, shortened: as §1

[33] = target: Gal(b1-4)GlcNAc(b1-2)Man(a1-6)Man(b1-4)GlcNAc(b1-4)GlcNAc
Procedure, shortened: as §1

[34] = target: Gal(b1-4)GlcNAc(b1-2)Man(a1-6)[GlcNAc(b1-2)Man(a1-3)]Man(b1-4)GlcNAc(b1-4)GlcNAc
Procedure, shortened: as §1

[35] = target: Gal(b1-4)GlcNAc(b1-2)Man(a1-6)[Man(a1-3)]Man(b1-4)GlcNAc(b1-4)GlcNAc
Procedure, shortened: as §1

[36] = target: Gal(b1-4)GlcNAc(b1-2)[Gal(b1-4)GlcNAc(b1-4)]Man(a1-3)[Gal(b1-4)GlcNAc(b1-2)Man(a1-6)]Man(b1-4)GlcNAc(b1-4)GlcNAc
Procedure, shortened: as §1

[37] = target: Gal(b1-4)GlcNAc(b1-2)[Gal(b1-4)GlcNAc(b1-4)]Man(a1-3)[Gal(b1-4)GlcNAc(b1-2)[Gal(b1-4)GlcNAc(b1-6)]Man(a1-6)]Man(b1-4)GlcNAc(b1-4)GlcNAc
Procedure, shortened: as §1

[38] = target: Gal(b1-4)GlcNAc(b1-3)Gal(b1-3)GlcNAc
Procedure, shortened: as §1

[39] = target: Gal(b1-4)GlcNAc(b1-3)Gal(b1-4)Glc
Procedure, shortened: as §1

[40] = target: Gal(b1-4)GlcNAc(b1-3)Gal(b1-4)GlcNAc
Procedure, shortened: as §1

[41] = target: Gal(b1-4)GlcNAc(b1-3)Gal(b1-4)GlcNAc(b1-3)Gal(b1-4)GlcNAc
Procedure, shortened: as §1

B1: Gal 3 (Homo sapiens), P17931 (protein)
chain: MADNFSLHDALSGSGNPNPQGWPGAWGNQPAGAGGYPGASYPGAYPGQAPPGAYPGQAPPGAYHGAPGAYPGAPAPGVYPGPPSGPGAYPSSGQPSAPGAYPATGPYGAPAGPLIVPYNLPLPGGVVPRMLITILGTVKPNANRIQLDFQRGNDVAFHFNPRFNENNRRVIVCNTKLDNNWGREERQSVFPFESGKPFKIQVLVEPDHFKVAVNDAHLLQYNHRVKKLNEISKLGISGDIDLTSASYTMI
[1]
  glycan array binding signal (z-score): -0.198
[2]
  glycan array binding signal (z-score): -0.19
[3]
  glycan array binding signal (z-score): -0.191
[4]
  glycan array binding signal (z-score): -0.193
Gal(b1-3)GlcNAc
  glycan array binding signal (z-score): -0.154
[5]
  glycan array binding signal (z-score): -0.197
[6]
  glycan array binding signal (z-score): -0.169
[7]
  glycan array binding signal (z-score): -0.198
[8]
  glycan array binding signal (z-score): -0.136
[9]
  glycan array binding signal (z-score): -0.193
[10]
  glycan array binding signal (z-score): -0.186
[11]
  glycan array binding signal (z-score): -0.168
[12]
  glycan array binding signal (z-score): -0.009
[13]
  glycan array binding signal (z-score): -0.19
[14]
  glycan array binding signal (z-score): -0.196
[15]
  glycan array binding signal (z-score): -0.196
[16]
  glycan array binding signal (z-score): -0.197
[17]
  glycan array binding signal (z-score): -0.197
[18]
  glycan array binding signal (z-score): -0.193
[19]
  glycan array binding signal (z-score): -0.182
[20]
  glycan array binding signal (z-score): -0.169
[21]
  glycan array binding signal (z-score): -0.141
[22]
  glycan array binding signal (z-score): -0.195
[23]
  glycan array binding signal (z-score): -0.193
[24]
  glycan array binding signal (z-score): -0.19
[25]
  glycan array binding signal (z-score): -0.188
[26]
  glycan array binding signal (z-score): -0.202
Gal(b1-4)Glc
  glycan array binding signal (z-score): -0.197
Gal(b1-4)Glc6S
  glycan array binding signal (z-score): -0.195
Gal(b1-4)GlcNAc
  glycan array binding signal (z-score): -0.196
[27]
  glycan array binding signal (z-score): -0.188
[28]
  glycan array binding signal (z-score): -0.083
[29]
  glycan array binding signal (z-score): 0.03
[30]
  glycan array binding signal (z-score): -0.2
[31]
  glycan array binding signal (z-score): -0.184
[32]
  glycan array binding signal (z-score): -0.181
[33]
  glycan array binding signal (z-score): -0.181
[34]
  glycan array binding signal (z-score): -0.142
[35]
  glycan array binding signal (z-score): -0.196
[36]
  glycan array binding signal (z-score): -0.051
[37]
  glycan array binding signal (z-score): 0.085
[38]
  glycan array binding signal (z-score): 1.28
[39]
  glycan array binding signal (z-score): -0.035
[40]
  glycan array binding signal (z-score): 1.03
[41]
  glycan array binding signal (z-score): 3.5
